Hit rate of the full screen: of about 310,000 compounds, about 2,200 (0.71%) showed an effect of 50% or more. The effect is printed as a negative number. This is one part of the list.
Target: human ether-à-go-go-related gene (hERG) potassium channel (human, UniProt Q12809)
Assay: primary screen, population patch clamp on CHO cells stably expressing hERG

Sequence of human ether-à-go-go-related gene (hERG) potassium channel (Q12809 whole entry, looked up): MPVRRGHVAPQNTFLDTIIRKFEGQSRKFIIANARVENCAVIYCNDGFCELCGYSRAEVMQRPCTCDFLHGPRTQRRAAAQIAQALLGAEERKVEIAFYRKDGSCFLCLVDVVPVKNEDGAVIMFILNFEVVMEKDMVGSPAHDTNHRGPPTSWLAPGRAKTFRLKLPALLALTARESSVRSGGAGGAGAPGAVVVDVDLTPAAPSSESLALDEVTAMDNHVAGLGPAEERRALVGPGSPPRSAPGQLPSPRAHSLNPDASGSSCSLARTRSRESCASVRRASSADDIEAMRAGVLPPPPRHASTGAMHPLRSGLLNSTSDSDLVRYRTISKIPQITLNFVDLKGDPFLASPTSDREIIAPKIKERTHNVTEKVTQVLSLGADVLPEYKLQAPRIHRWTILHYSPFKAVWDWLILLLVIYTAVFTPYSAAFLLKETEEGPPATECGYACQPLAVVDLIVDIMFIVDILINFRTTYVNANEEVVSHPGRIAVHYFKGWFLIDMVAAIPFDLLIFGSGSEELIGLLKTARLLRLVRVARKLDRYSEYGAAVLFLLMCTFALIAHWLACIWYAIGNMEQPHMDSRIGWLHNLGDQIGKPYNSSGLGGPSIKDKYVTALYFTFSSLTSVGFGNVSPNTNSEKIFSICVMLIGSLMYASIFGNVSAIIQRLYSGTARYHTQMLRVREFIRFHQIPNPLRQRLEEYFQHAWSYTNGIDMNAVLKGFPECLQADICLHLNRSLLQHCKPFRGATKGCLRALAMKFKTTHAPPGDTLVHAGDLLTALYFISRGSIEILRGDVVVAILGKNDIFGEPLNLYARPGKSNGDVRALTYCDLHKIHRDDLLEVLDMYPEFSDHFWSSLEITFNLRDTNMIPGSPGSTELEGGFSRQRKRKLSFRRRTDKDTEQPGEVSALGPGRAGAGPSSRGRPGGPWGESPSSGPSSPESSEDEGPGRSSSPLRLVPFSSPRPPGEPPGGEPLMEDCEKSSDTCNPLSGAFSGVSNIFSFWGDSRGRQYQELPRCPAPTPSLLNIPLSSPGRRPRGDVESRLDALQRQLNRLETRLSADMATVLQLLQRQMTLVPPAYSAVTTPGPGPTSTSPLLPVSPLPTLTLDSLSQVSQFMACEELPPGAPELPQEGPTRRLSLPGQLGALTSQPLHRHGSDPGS

Compound | hERG current change (%, negative = inhibition) at 1uM [%]
CC(C(=O)N1CCN(c2ccc([N+](=O)[O-])cc2)CC1)N1C(=O)C2CC=CCC2C1=O (stereo not drawn) | -50.2
CCN(CC)CCNC(=O)/C(=C\c1cccn1C)NC(=O)c1cccs1 | -5.64
COc1ccc(CCNC(=O)COc2ccc(S(=O)(=O)N3CCOCC3)cc2)cc1 | 9.31
COc1cccc(NC(=O)[C@H](CC(C)C)NC(=O)[C@@H]2Cc3ccccc3CN2)c1 | -0.182
CC1(C)Cc2c(sc(NC(=O)C(C)(C)C)c2C#N)C(C)(C)N1 | 7.69
O=C(Oc1cccc(NC2=NS(=O)(=O)c3ccccc32)c1)c1ccncc1 | 6.41
CCCC(c1nnnn1C1CCCCC1)N1CCN(c2ncccn2)CC1.Cl (stereo not drawn) | 1.23
O=C(COC(=O)c1cnccn1)c1ccc(-c2ccccc2)cc1 | 16
O=C(COC(=O)c1ccccc1)Nc1ccccc1N1CCOCC1 | -3.95
COc1ccc(-n2c(C)cc(/C=C3/SC(=O)N(CC(=O)N4CCOCC4)C3=O)c2C)cc1 | 12
CC12CCC(=O)N1C(C(=O)Nc1nc(-c3ccccc3Cl)cs1)CS2 (stereo not drawn) | 6.51
CCCn1c(N)c(C(=O)CSc2nnc(N)s2)c(=O)[nH]c1=O | 0.931
COc1ccc(CC2C(=O)NC(=O)N(c3ccccc3)C2=O)c(OC)c1 (stereo not drawn) | 13.3
COc1ccc(S(=O)(=O)NCc2ccc(C(=O)NCc3cccnc3)cc2)cc1 | 0.596
COC(=O)c1sc(SC)c(S(=O)(=O)C(C)C)c1N/N=C(\C#N)C(=O)c1ccccc1 | -0.337
CCOc1ccc(C(=O)NCc2ccco2)cc1Cl | 9.69
COc1ccc(C(=O)NCCCCCCNC(=O)c2ccc(OC)cc2)cc1 | 9.15
Cc1ccc(-c2nn3c(C)nnc3c3ccccc23)cc1S(=O)(=O)NCCO | 11.9
O=Cc1ccc(-c2nc3ccccc3s2)o1 | 4.72
CCS(=O)(=O)c1nc(S(=O)(=O)c2ccc(Cl)cc2)c(N2CCN(C)CC2)s1 | 13
CCC(=O)Nc1cc2c3c(c1)CCN3C(=O)CC2 | -13.9

Compound | hERG current change (%, negative = inhibition) at 1uM [%]
CCOc1ncccc1C(=O)Nc1ccc(S(=O)(=O)Nc2nc(C)cc(C)n2)cc1 | 5.53
CCN1CCCC1CN(Cc1cc2cc(C)cc(C)c2[nH]c1=O)C(=O)Nc1ccccc1OC (stereo not drawn) | -7.22
O=C(NCCc1ccc(Cl)cc1)c1ccc2c(c1)OCCO2 | 20.2
COc1ccc(OC(C)C(=O)Nc2ccc(F)cc2F)cc1 (stereo not drawn) | 8.43
COc1ccc(NC(=S)NC(=O)c2csnn2)cc1 | -0.997
O/N=C/c1ccc2ccccc2n1 | 17.2
CC1(C)Cc2c(cnn2-c2cccc(F)c2)C(NC(=O)Cn2cccn2)C1 (stereo not drawn) | 1.4
CCOC(=O)CSC1=NC(=O)/C(=C/c2ccc(Br)cc2)S1 | 9.71
C/C(=N\O)C1CCCCC1 | 10.4
O=C(CCN1C(=O)CSC1=O)Nc1ccccc1 | 16.3
Cc1oc(C(=O)O)cc1COc1ccc2c3c(c(=O)oc2c1)CCC3 | 13.3
CCn1cc(C(=O)NCCCN2CCC(C)CC2)c2cc(OC)c(OC)cc2c1=O | 5.24
Cc1cc(O)c(C2(C(F)(F)F)NCCNC2=O)cc1C (stereo not drawn) | 14.6
CCOc1ccc2oc(C(=O)OCC(=O)N3C(C)CCCC3C)c(C)c2c1 (stereo not drawn) | 2.29
CCN(CC)S(=O)(=O)c1ccc(S(=O)(=O)Nc2c(C)nn(C)c2C)cc1 | 12.6
CCN(CC(=O)Nc1ccc(OC)cc1)C(=O)Cc1ccc(OC)c(S(=O)(=O)N2CCOCC2)c1 | 8.35
CCOC(=O)CSc1nnc(CNC(=O)c2ccc(OC)cc2)n1Cc1ccccc1 | 8.85
CCOC(=O)C(C)(C)N(Cc1ccc(C)cc1)S(=O)(=O)c1ccc(Cl)c([N+](=O)[O-])c1 | 10
CCOC(=O)C1(Cc2ccc(Cl)cc2)CCN(C(=O)CCc2cnccn2)CC1 | -5.67
COc1ccccc1C1CCN(c2ccc(CO)cc2[N+](=O)[O-])CC1 | 8.83
COC(=O)CN1C(=O)[C@H]2[C@@H](c3ccc(C)o3)N3C(=O)CN(CC4CC4)C(=O)[C@@]3(C)[C@H]2C1=O | 9.36
